Results from ChEMBL document CHEMBL4888484, “Replenishing the malaria drug discovery pipeline: Screening and hit evaluation of the MMV Hit Generation Library 1 (HGL1) against asexual blood stage Plasmodium falciparum ,using a nano luciferase reporter read-out” (2022).
The whole screen tested about 150,000 compounds, of which about 540 (0.36%) showed an effect of 50% or more. Some of the results follow.

Tested on: Plasmodium falciparum
Assay: Primary screen in NF54 nanoGlo assay, in single point, at 2uM, 72h; a lower Z score goes with more inhibition
Type: functional, Erythrocyte
Settings: timepoint 72 hour

Row | SMILES | % Inhibition [%] | Z score
1 | CC(C)c1ncc(Cl)c(-c2nc(C(C)(C)NS(C)(=O)=O)no2)n1 | 9 | -1.13
2 | CCn1cc(CN(C)Cc2cnc(NC[C@H]3CCCO3)nc2)cn1 | -3 | 0.42
3 | O=C1c2ccccc2C(=O)N1Cc1ccn(C2CCCC2)n1 | 29 | -3.32
4 | CC(C)(C)c1nnc(C(=O)NCc2ncc(Br)cn2)o1 | -3 | 0.49
5 | CC[C@H](NC(=O)c1ccn(C)c1C)c1nccs1 | -11 | 1.17
6 | O=C(Nc1ccc(Cl)c(Cl)c1)N1CCOCC1 | 3 | -0.41
7 | COc1cccc(CNC(=O)[C@H](CCC(N)=O)NC(=O)OCc2ccccc2)c1 | -1 | 0.14
8 | COc1nccnc1NCCn1nc(C)c(C)c1C | -5 | 0.77
9 | Cc1cc(NC(=O)N2CCC(O)(c3c(F)cccc3F)CC2)ccn1 | -11 | 1.12
10 | COCCN1CCCCC[C@H](O)c2cc(C(=O)NCC3CC3)ccc21 | 1 | -0.11
11 | O=C(N[C@@H]1C[C@H](Cn2cc(C3CC3)nn2)[C@@H](O)[C@H]1O)C1CCOCC1 | 5 | -0.6
12 | Cc1cc(NC[C@H](C)c2ccccc2)nn1C | -4 | 0.43
13 | O=C(CCC1CCCCC1)N1CC(C(F)F)C1 | -14 | 1.58
14 | Cc1cc(Br)cc(S(=O)(=O)N(C)[C@@H](C)CO)c1 | -1 | 0.14
15 | O=C1CN(C(=O)[C@H]2CCOC2)CCN1CCc1ccccc1 | -18 | 1.78
16 | COc1ccc(Nc2nc3c(c(=O)[nH]2)CCC3)cc1 | -11 | 1.47
17 | C[C@H]1CN(C(=O)c2ccc(O)nc2)CC(C)(C)O1 | -10 | 1.56
18 | CN(C)[C@@]1(c2ccccc2)CS(=O)(=O)C1(C)C | -5 | 0.89
19 | COc1cccc2c1OC[C@@H](C(=O)N(Cc1cnn(C)c1)C1CCCCC1)C2 | -2 | 0.38
20 | Cn1nc2n(c1=O)C[C@@H](C(=O)N1CCC(CNC(=O)c3ccoc3)CC1)CC2 | -5 | 0.79
21 | CN(c1ccccc1C(=O)N1CCN(c2ccccc2F)CC1)S(=O)(=O)c1ccccc1 | 3 | -0.4

Row | SMILES | % Inhibition [%] | Z score
22 | COc1ccccc1N1CCN(C[C@@H](O)CC2CCCC2)CC1 | -3 | 0.25
23 | Cc1cscc1NC(=O)NCC(C)(C)C1CCOCC1 | 2 | -0.24
24 | NC(=O)CN1CCCN(C(=O)c2cc(Cl)sc2Cl)CC1 | -5 | 0.78
25 | COc1cc(C)c(-c2cccc(C(=O)N[C@H]3CS(=O)(=O)C[C@@H]3O)c2)cn1 | -9 | 1.11
26 | CCN(CC)C(=O)c1cnc2ccc(C)cn2c1=O | 2 | -0.27
27 | O=C(CNC(=O)c1cccs1)NC1CCCCCCC1 | 0 | 0.06
28 | CC(C)c1nn(-c2ccccc2)c(N(C)C)c1CN(C[C@H]1CCCO1)C(=O)c1ccccc1Cl | -13 | 1.16
29 | c1c[nH]c(Cn2cc(-c3ccc(-c4cc[nH]n4)s3)nn2)n1 | -9 | 1.58
30 | O=C(NCc1ccc(F)cc1)c1noc(CCn2cncn2)n1 | 5 | -0.93
31 | CC[C@@H](c1ccccn1)N(C)Cc1coc(C)n1 | -8 | 1.05
32 | CC1(C)N=C(c2ccc(C(C)(C)C)cc2)C(=O)N1 | 33 | -1.22
33 | OCCn1ccc([C@H]2CCCN(Cc3ccccc3Cn3cccn3)C2)n1 | 0 | 0.05
34 | CC1(C)C[C@@H]1NC(=O)C1(CF)CCOCC1 | -8 | 0.8
35 | CC[C@@H](C(=O)N1CCN(c2ccc(NC(=O)c3ccc4c(c3)OCO4)cc2C(=O)N(C)Cc2ccccc2)CC1)c1ccccc1 | 5 | -0.54
36 | c1cn([C@H]2CCCN(Cc3c[nH]nn3)C2)nn1 | 2 | -0.34
37 | COCC(C)C(=O)N1CC2CCCC2C1C(N)=O (stereo not drawn) | -6 | 1.15
38 | O=C1N(CC2CC2)CCC[C@@]12CCN(S(=O)(=O)c1ccc(F)cc1F)C2 | -10 | 1
39 | O=C(Nc1ccccc1F)Nc1ccccc1NC(=O)c1ccccc1Cl | 4 | -0.43
40 | O=S(=O)(NCc1ccccc1)N1CCC(Nc2ncccn2)CC1 | -14 | 2.72
41 | CCN=C(NCCCCc1nc(C)cs1)N(C)Cc1cnn(C)c1 | -17 | 1.51
42 | Cc1cc(C)nc(N2CCN(C(=O)c3coc4ccccc34)CC2)n1 | -8 | 0.77

Row | SMILES | % Inhibition [%] | Z score
43 | Cc1c(C(=O)N2CC[C@@](O)(C3CCOCC3)[C@H](C)C2)n(C)c2c(C)cccc12 | -16 | 2.09
44 | Cc1c(C(=O)N2CC3CCC2C3)sc2ncc(C(=O)N3CC4CCC3C4)cc12 (stereo not drawn) | -11 | 1.79
45 | C=CCC1(OCc2ccccc2)CCN(CCC(=O)N(C)C)CC1 | -5 | 0.74
46 | CCCn1cc(S(=O)(=O)NCCCc2csc(N)n2)cn1 | -2 | 0.41
47 | CCOc1cc2sc(N3CCC(C(=O)NCCN(C)C4CCCCC4)CC3)nc2cc1Br | -14 | 1.72
48 | CCc1ccc(C(=O)NC2CCN(c3ccccc3C(=O)N3CCc4ccccc4C3)CC2)cc1 | -9 | 1.54
49 | CC[C@@H](CC#N)NC(=O)c1cc(Cl)cc(F)c1N | -1 | 0.07
50 | Cc1ccc(-c2nc(Cn3nnc(-c4nc(-c5ccc(F)cc5)no4)c3C)c(C)o2)cc1 | -1 | 0.11
51 | CC(Oc1ccc(Br)cc1)C(=O)N1CC[C@@H](N)C1 (stereo partly drawn) | -7 | 0.91
52 | Cn1ncc(C#N)c1NC(=O)C1CCN(S(=O)(=O)c2ccc(Cl)cc2)CC1 | 31 | -3.55
53 | O=C(NCc1ccc(-c2ccccn2)s1)c1ccccc1[C@H]1CCNC1 | 9 | -1.57
54 | O=C(C[C@@H]1C=CCCC1)N1CC(CF)C1 | -14 | 1.57
55 | CC(=O)N1CC[C@]2(CO)CN(C(=O)c3cccc(C(F)(F)F)c3)C[C@@H]2C1 | -13 | 1.87
56 | CCc1ncc(C(=O)N2CCN(c3ccc(OC)cc3)CC2)s1 | -29 | 3.45
57 | CC[C@@H](CNCc1cscn1)Oc1cccc(F)c1 | -11 | 1.68
58 | COc1cc(CNC2(c3nc(C)cs3)CCC2)ccc1Cl | 1 | -0.19
59 | COc1c(C)cnc(CN2CC[C@@]3(CCCN(CC4CCC4)C3=O)C2)c1C | -6 | 1.18
60 | N#Cc1ccc(NC[C@@H](CO)Cc2ccccn2)c(F)c1 | -14 | 1.22
61 | CC(=O)Nc1ccccc1CNC(=O)[C@]1(c2ccccc2)CCCO1 | -1 | 0.1
62 | COc1ccc(CNC(=O)c2sc(=S)n(-c3ccc(F)c(Cl)c3)c2N)cc1 | -8 | 1.03
63 | O=C(CN1CCCN(CC(=O)Nc2ccnn2C2CCCC2)CC1)Nc1ccnn1C1CCCC1 | -14 | 1.85

Row | SMILES | % Inhibition [%] | Z score
64 | CC(=O)N1CCN(c2ncccc2CNS(=O)(=O)N2CCCC2)CC1 | -21 | 1.88
65 | CCn1cc(S(=O)(=O)N2CC(c3nc(CCN(C)C(=O)c4ccncc4)no3)C2)cn1 | -10 | 1.25
66 | CC(C)(C)CN(CCCO)S(=O)(=O)N1CCCCCC1 | -9 | 0.95
67 | CCCn1cc(S(=O)(=O)N[C@@H](C)C2=CCCCC2)cn1 | -8 | 0.98
68 | CCOc1cc2cc(c1)C(=O)N(C)CC(=O)N[C@@H]1CN(CC(=O)Nc3cnn(C)c3)CC[C@@H]1OCc1cccc(c1)O2 | -1 | 0.18
69 | C[C@@H](CNC(=O)C1CCCN1C1CCOCC1)Oc1ccc(Cl)cc1 (stereo partly drawn) | -5 | 0.57
70 | CN1CCC2(CC1)CN(C(=O)c1ccccc1-c1ccccc1)CCCN2C | 1 | -0.1
71 | COc1cccc(N2C(=O)N(CC#N)S(=O)(=O)c3cccnc32)c1 | -5 | 0.52
72 | O=C([C@H]1CCCN(C2CCN(Cc3ccncc3)CC2)C1)N1Cc2ccccc2C1 | -5 | 1.04
73 | CC(NC(=O)C1CCC1)C(=O)NC(CN1CCOCC1)C(C)C (stereo not drawn) | -3 | 0.7
74 | CCC(NC1CCCN(CC(F)(F)F)C1=O)C(=O)OC (stereo not drawn) | 0 | 0.05
75 | OC[C@@H](O)CN1CCc2[nH]nc(-c3cccc4ccccc34)c2C1 | -4 | 0.5
76 | Cc1ccc(CN2C[C@@H]3OC(=O)N(C4CCCC4)[C@@H]3C2)cc1C | 6 | -0.89
77 | COCCNC(=O)c1coc(CN(Cc2ccc(C(F)(F)F)cc2)Cc2ccc3c(c2)OCO3)n1 | -6 | 1.02
78 | O=C(O)Cc1csc(-c2cccc3ccccc23)n1 | 3 | -0.57
79 | Cc1ccc(S(=O)(=O)/N=C(\CN2CCOCC2)N2CCCCC2)cc1 | -1 | 0.11
80 | Cc1cc(COc2ccccc2)oc1C(=O)N1CC(n2cccn2)C1 | -3 | 0.58
81 | CC(C)OCC[C@@](C)(C#N)NC(=O)c1ccc(F)c(Cl)c1F | -2 | 0.21
82 | O=C1[C@@H]2[C@H](CO)N[C@]3(C(=O)Nc4ccccc43)[C@@H]2C(=O)N1Cc1ccccc1 | -2 | 0.32
83 | CN(Cc1cnc2ccccc2c1)C(=O)c1ccc(CCC(C)(C)O)cc1 | -5 | 0.64
84 | O=C(N[C@H]1CCS(=O)(=O)C1)c1cccc(Oc2cccc(C(F)(F)F)c2)c1 | -25 | 2.94
